From PubChem BioAssay AID463173 (ICCB-Longwood Screening Facility, Harvard Medical School, 2010)
Out of some 52,000 compounds screened, about 1,700 (3.3%) were called active. Cut-off read from the data, not from the text of the source: active = survival mostly below about 52% (no sharp cut-off); inactive = mostly above about 56%. Some of the results follow.

What follows are compounds tested on Wild type (assay: growth inhibition of S. aureus wild type versus tarO mutant, primary screen, teichoic acid synthesis inhibitors, RN4220, OD600 (AID 463173)). Settings: S. aureus RN4220 wild type/DeltatarO growth, OD600, 18 h, hits give low values, screened at 18.75 µg/mL (by protocol).
With `CCOC(=O)c1cccc(Nc2cc(-c3ccccc3)ncn2)c1` the survival was inactive: 40%.
In the case of `Cc1c(Cl)cccc1NC(=O)c1ccc2snnc2c1`, the survival is reported as inactive: 106%.
For `CCOC(=O)c1c(C)[nH]c(CCC(=O)NCc2ccccc2Cl)c1C`, the survival was inactive: 68%.
`Cc1nc(-c2ccccc2)sc1CCNC(=O)C(=O)Nc1ccc2c(c1)OCO2` was tested, and the survival was inactive: 60%.
In the case of `COc1ccc(NC(=O)CCCN2C(=O)CCn3nc(-c4cn(C)c5ccccc45)cc32)cc1OC`, the survival is reported as inactive: 72%.
`COc1cccc(OCCSc2nc(C)c(Cc3ccccc3)c(=O)[nH]2)c1` was tested, and the survival was inactive: 86%.
For `Cc1ccc(N(C)C(=O)C2CCN(S(=O)(=O)c3c(C)noc3/C=C/c3c(C)cc(C)cc3C)CC2)cc1`, the survival was inactive: 73%.
With `Cc1cccc(C(=O)NCC(=O)OCc2cc(=O)n3nc(C4CCCCC4)sc3n2)c1` the survival was inactive: 65%.
In the case of `Cc1cccc(N2CCN(S(=O)(=O)c3ccc4[nH]c5c(c4c3)CCCCC5)CC2)c1C`, the survival is reported as inactive: 93%.
`CCOC(=O)c1cccc(NC(=O)CC2C(=O)N(c3ccc(OC)cc3)C(=O)N2C2CCCC2)c1` (configuration not stated) was tested, and the survival was inactive: 120%.
`COc1cccc(NC(=O)C2=C(C)C(=O)OC23CCN(C(C)=O)CC3)c1` was tested, and the survival was inactive: 79%.
For `c1ccc(-c2nnc(SCc3cccnc3)o2)cc1`, the survival was inactive: 104%.
With `COc1ccccc1C(=O)Nc1cc2c(cc1N1CCCC1)n(C)c(=O)c(=O)n2C` the survival was inactive: 72%.
`CCC(=O)N1c2ccc(S(=O)(=O)NCc3ccc(F)cc3)cc2CC1C` (configuration not stated) was tested, and the survival was inactive: 81%.
With `COc1cc2c(cc1OC)C(COc1ccc3c(C)cc(=O)oc3c1)N(C(=O)c1cc(Cl)ccc1OC)CC2` (configuration not stated) the survival was inactive: 72%.
With `CCN(CC)C(=O)Cn1nnc2sc(-c3ccccc3)cc2c1=O` the survival was inactive: 88%.
With `COC(=O)CN1C(=O)CSc2ccc(S(=O)(=O)Nc3cccc(C)c3C)cc21` the survival was inactive: 45%.
With `Cc1ccc(CN2CCSc3ccc(C(=O)NCC(C)c4ccccc4)cc32)cc1` (configuration not stated) the survival was inactive: 99%.
For `Cc1cc2oc(C(=O)Nc3ccc(S(=O)(=O)Nc4ncccn4)cc3)cc(=O)c2cc1C`, the survival was inactive: 90%.
For `CCOC(=O)CSc1ncnc2sc3c(c12)CCC3`, the survival was inactive: 100%.
In the case of `CCCOc1ccc(CNC(=O)c2ccc(-n3c(C)cc4c3CCC(C)C4)cc2)cc1` (configuration not stated), the survival is reported as inactive: 113%.
For `Cc1ccc(Cn2cc(S(=O)(=O)c3cccc(Cl)c3)c(=O)c3cc(F)c(N4CCOCC4)cc32)cc1`, the survival was inactive: 87%.
With `CCOc1ccc(C2NC(=O)c3c(COC)cc(C)nc3N2Cc2ccccc2)cc1OC` (configuration not stated) the survival was inactive: 167%.
`CCOC(=O)C(O)C(C)(C)CN1C(=O)c2ccccc2C1=O` (configuration not stated) was tested, and the survival was inactive: 100%.
In the case of `CCN(C(=O)CSc1nc2ccccc2[nH]1)c1ccccc1`, the survival is reported as inactive: 81%.
With `Cc1ccc(NC(=O)Cn2ccn(-c3ccccc3)c(=O)c2=O)cc1` the survival was inactive: 84%.
`CC(CN1CCCCC1)OC(=O)CCc1ccccc1` (configuration not stated) was tested, and the survival was inactive: 100%.
`Cc1ccc(C)c(N2CCN(C(=O)c3ccc4c(c3)N(Cc3ccc(F)cc3)C(=O)c3ccccc3S4=O)CC2)c1` (configuration not stated) was tested, and the survival was inactive: 85%.
`CC1CCC(Nc2nc3c(-c4cccc(C(F)(F)F)c4)nnn3c3ccccc23)CC1` (configuration not stated) was tested, and the survival was active: -1%.
With `COc1cc(OC)c(NC(=O)CCc2c(C)nc3cc(-c4ccccc4OC)nn3c2C)cc1Cl` the survival was inactive: 87%.
`CCN(CC)C(C)C#Cc1ccccc1` (configuration not stated) was tested, and the survival was inactive: 102%.
In the case of `CC(C)OC(=O)c1c(NC(=O)C2c3ccccc3Oc3ccccc32)sc2c1CCCC2`, the survival is reported as inactive: 84%.
`COc1ccccc1-c1noc(CCC(=O)Nc2ccc(C)cc2C)n1` was tested, and the survival was inactive: 88%.
With `Cc1ccc(NC(=O)C2CCCN(S(=O)(=O)c3cn(C(C)C)cn3)C2)c(C)c1` (configuration not stated) the survival was inactive: 65%.
In the case of `CC1(N)CCS(=O)(=O)C1` (configuration not stated), the survival is reported as inactive: 110%.
In the case of `CC(=O)c1ccc(Nc2cc(C)nc3nc(Cc4ccc(Cl)cc4)nn23)cc1`, the survival is reported as inactive: 88%.
With `O=C(Nc1cc2c(cc1C(=O)c1ccccc1Cl)OCCO2)c1ccccc1` the survival was inactive: 127%.
For `CC(C)c1nn2c(=O)cc(COC(=O)c3ccccc3NC(=O)C3CCCCC3)nc2s1`, the survival was inactive: 72%.
`CCc1ccc2oc(C(=O)Nc3cc(C)ccc3C)cc(=O)c2c1` was tested, and the survival was inactive: 85%.
`CN(C)c1ccc(CNC(=O)c2ccccc2NC(=O)c2nsc3ccccc23)cc1` was tested, and the survival was inactive: 80%.
`CC1Cc2ccccc2N1C(=O)CSc1nnc(-c2ccccc2Cl)o1` (configuration not stated) was tested, and the survival was inactive: 45%.
For `N#C/C(=C\c1c[nH]c2ccccc12)C(N)=O`, the survival was inactive: 100%.
With `NC(=O)C1CCN(C(=O)C2C3C=CC(O3)C2C(=O)O)CC1` (configuration not stated) the survival was inactive: 107%.
In the case of `C=CCOc1ccc(CNn2cn[nH]c2=S)cc1`, the survival is reported as inactive: 84%.
In the case of `CCCN(CCC)CC(O)Cn1cc(/C=C/C(=O)c2ccc(Br)cc2)c2ccccc21` (configuration not stated), the survival is reported as inactive: 85%.
`CCn1cc(C(=O)N(C)c2ccc(C(C)C)cc2)c2cc(OC)c(OC)cc2c1=O` was tested, and the survival was inactive: 135%.
In the case of `Cc1ccc(CNC(=O)CCNS(=O)(=O)c2cccc3nsnc23)cc1`, the survival is reported as inactive: 65%.
For `CCc1ccc(NC(=O)Cn2c(=O)n(-c3ccc(OC)cc3)c(=O)c3ccc(C(=O)NCc4ccc(C)cc4)cc32)cc1`, the survival was inactive: 132%.
In the case of `Cc1c(CCC(=O)N2CCCCC2)c(=O)oc2cc3occ(C(C)(C)C)c3cc12`, the survival is reported as inactive: 74%.
With `Cc1ccc2nc(NC(=O)CSc3ncc(C(=O)Nc4ccc(F)cc4)c(=O)n3C)sc2c1` the survival was inactive: 121%.
In the case of `Cc1ccc(Cc2nc3ccccc3nc2SCC(=O)N2CCN(c3ccc(F)cc3)CC2)cc1`, the survival is reported as inactive: 118%.
`CCOC(=O)c1noc2nc(C)n(Cc3cccc([N+](=O)[O-])c3)c(=O)c12` was tested, and the survival was inactive: 159%.
`COCCn1cc(C(=O)NCCCOC(C)C)c2c3ccccc3n(C)c2c1=O` was tested, and the survival was inactive: 114%.
With `COc1ccc(CNC(=O)Cc2ccc(NC(=O)N3CCSc4ncccc43)cc2)cc1` the survival was inactive: 78%.
With `CC(C)n1nc(CC(=O)O)c2ccccc2c1=O` the survival was inactive: 103%.
In the case of `CCc1ccc(-n2nc(C)c3c(C)cc(=O)n(CC(=O)Nc4ccc(F)cc4C)c32)cc1`, the survival is reported as inactive: 73%.
In the case of `Cc1nnc(SCC(=O)NCc2ccccc2Cl)c2nn(-c3ccccc3)c(C)c12`, the survival is reported as inactive: 127%.
